# Source: the supplement of paper PMC8728848
# The list shows a part of the results.
# B1: Gal 8 (Mus musculus), Q9JL15 (protein)
# chain: MGGSHHHHHHGMASMLSLNNLQNIIYNPIIPYVGTITEQLKPGSLIVIRGHVPKDSERFQVDFQLGNSLKPRADVAFHFNPHFKRSSCIVCNTLTQEKWGWEEITYDMPFRKEKSFEIVFMVLKNKFQVAVNGRHVLLYAHRISPEQIDTVGIYGKVNIHSIGFRFSSASALPHTLGDLQSMETSALGLTQINRENIQKPGKLQLSLPFEARLNASMGPGRTVVIKGEVNTNARSFNVDLVAGKTRDIALHLNPHLNVKAFVRNSFLQDAWGEEERNITCFPFSSGMYFEMIIYCDVREFKVAINGVHSLEYKHRFKDLSSIDTLSVDGDIRLLDVRSW
# What was measured:
# Experiment in all cases: glycan array binding signal (z-score within array); higher = stronger binding
# Conditions in all cases: glycan notation: IUPAC condensed, linker removed; mutation: R82H, R255H
# [1] = target: Gal(b1-4)GlcNAc(b1-3)Gal(b1-4)GlcNAc(b1-3)Gal(b1-4)GlcNAc(b1-3)Gal(b1-4)GlcNAc(b1-2)Man(a1-3)[Gal(b1-4)GlcNAc(b1-3)Gal(b1-4)GlcNAc(b1-3)Gal(b1-4)GlcNAc(b1-3)Gal(b1-4)GlcNAc(b1-2)Man(a1-6)]Man(b1-4)GlcNAc(b1-4)GlcNAc
# In short: (§1)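 Negative Z-scores can be read as non-binding. The Z-score is calculated within each array and then averaged across arrays of one protein sequence at different concentrations or buffers and across linkers. Arrays, 3228 in all, were curated from the Consortium for Functional Glycomics database and kept only where the protein sequence was available.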
# [2] = target: Gal(b1-4)GlcNAc(b1-3)Gal(b1-4)GlcNAc(b1-3)Gal(b1-4)GlcNAc(b1-3)Gal(b1-4)GlcNAc(b1-2)Man(a1-3)[Gal(b1-4)GlcNAc(b1-3)Gal(b1-4)GlcNAc(b1-3)Gal(b1-4)GlcNAc(b1-3)Gal(b1-4)GlcNAc(b1-2)Man(a1-6)]Man(b1-4)GlcNAc(b1-4)[Fuc(a1-6)]GlcNAc
# In short: as §1
# [3] = target: Gal(b1-4)GlcNAc(b1-3)Gal(b1-4)GlcNAc(b1-3)Gal(b1-4)GlcNAc(b1-3)Gal(b1-4)GlcNAc(b1-2)[Gal(b1-4)GlcNAc(b1-3)Gal(b1-4)GlcNAc(b1-3)Gal(b1-4)GlcNAc(b1-3)Gal(b1-4)GlcNAc(b1-6)]Man(a1-6)[Gal(b1-4)GlcNAc(b1-3)Gal(b1-4)GlcNAc(b1-3)Gal(b1-4)GlcNAc(b1-3)Gal(b1-4)GlcNAc(b1-2)Man(a1-3)]Man(b1-4)GlcNAc(b1-4)[Fuc(a1-6)]GlcNAc
# In short: as §1
# [4] = target: Gal(b1-4)GlcNAc(b1-3)Gal(b1-4)GlcNAc(b1-3)Gal(b1-4)GlcNAc(b1-3)Gal(b1-4)GlcNAc(b1-3)Gal(b1-4)GlcNAc(b1-2)Man(a1-3)[Gal(b1-4)GlcNAc(b1-3)Gal(b1-4)GlcNAc(b1-3)Gal(b1-4)GlcNAc(b1-3)Gal(b1-4)GlcNAc(b1-3)Gal(b1-4)GlcNAc(b1-2)Man(a1-6)]Man(b1-4)GlcNAc(b1-4)GlcNAc
# In short: as §1
# [5] = target: Gal(b1-4)GlcNAc(b1-3)Gal(b1-4)GlcNAc(b1-3)Gal(b1-4)GlcNAc(b1-3)Gal(b1-4)GlcNAc(b1-3)Gal(b1-4)GlcNAc(b1-2)Man(a1-3)[Gal(b1-4)GlcNAc(b1-3)Gal(b1-4)GlcNAc(b1-3)Gal(b1-4)GlcNAc(b1-3)Gal(b1-4)GlcNAc(b1-3)Gal(b1-4)GlcNAc(b1-2)Man(a1-6)]Man(b1-4)GlcNAc(b1-4)[Fuc(a1-6)]GlcNAc
# In short: as §1
# [6] = target: Gal(b1-4)GlcNAc(b1-3)Gal(b1-4)GlcNAc(b1-3)Gal(b1-4)GlcNAc(b1-3)Gal(b1-4)GlcNAc(b1-3)Gal(b1-4)GlcNAc(b1-2)[Gal(b1-4)GlcNAc(b1-3)Gal(b1-4)GlcNAc(b1-3)Gal(b1-4)GlcNAc(b1-3)Gal(b1-4)GlcNAc(b1-3)Gal(b1-4)GlcNAc(b1-6)]Man(a1-6)[Gal(b1-4)GlcNAc(b1-3)Gal(b1-4)GlcNAc(b1-3)Gal(b1-4)GlcNAc(b1-3)Gal(b1-4)GlcNAc(b1-3)Gal(b1-4)GlcNAc(b1-2)Man(a1-3)]Man(b1-4)GlcNAc(b1-4)[Fuc(a1-6)]GlcNAc
# In short: as §1
# [7] = target: Gal(b1-4)GlcNAc(b1-3)Gal(b1-4)GlcNAc(b1-3)Gal(b1-4)GlcNAc(b1-3)Gal(b1-4)GlcNAc(b1-3)Gal(b1-4)GlcNAc(b1-3)Gal(b1-4)GlcNAc(b1-2)Man(a1-3)[Gal(b1-4)GlcNAc(b1-3)Gal(b1-4)GlcNAc(b1-3)Gal(b1-4)GlcNAc(b1-3)Gal(b1-4)GlcNAc(b1-3)Gal(b1-4)GlcNAc(b1-3)Gal(b1-4)GlcNAc(b1-2)Man(a1-6)]Man(b1-4)GlcNAc(b1-4)GlcNAc
# In short: as §1
# [8] = target: Gal(b1-4)GlcNAc(b1-3)Gal(b1-4)GlcNAc(b1-3)GalNAc
# In short: as §1
# [9] = target: Gal(b1-4)GlcNAc(b1-3)Gal(b1-4)GlcNAc(b1-3)[Gal(b1-4)GlcNAc(b1-3)Gal(b1-4)GlcNAc(b1-6)]GalNAc
# In short: as §1
# [10] = target: Gal(b1-4)GlcNAc(b1-3)Gal(b1-4)GlcNAc(b1-6)[Gal(b1-3)]GalNAc
# In short: as §1
# [11] = target: Gal(b1-4)GlcNAc(b1-3)Gal(b1-4)[Fuc(a1-3)]GlcNAc(b1-3)Gal(b1-4)[Fuc(a1-3)]GlcNAc
# In short: as §1
# [12] = target: Gal(b1-4)GlcNAc(b1-3)GalNAc
# In short: as §1
# [13] = target: Gal(b1-4)GlcNAc(b1-3)[Fuc(a1-3)GlcNAc(b1-6)]Gal(b1-4)Glc
# In short: as §1
# [14] = target: Gal(b1-4)GlcNAc(b1-3)[Gal(b1-4)GlcNAc(b1-6)]Gal(b1-4)GlcNAc
# In short: as §1
# [15] = target: Gal(b1-4)GlcNAc(b1-3)[GlcNAc(b1-6)]Gal(b1-4)GlcNAc
# In short: as §1
# [16] = target: Gal(b1-4)GlcNAc(b1-6)Gal(b1-4)GlcNAc
# In short: as §1
# [17] = target: Gal(b1-4)GlcNAc(b1-6)GalNAc
# In short: as §1
# [18] = target: Gal(b1-4)GlcNAc(b1-6)[Gal(b1-3)]GalNAc
# In short: as §1
# [19] = target: Gal(b1-4)GlcNAc(b1-6)[Gal(b1-4)GlcNAc(b1-3)]GalNAc
# In short: as §1
# [20] = target: Gal(b1-4)GlcNAc6P
# In short: as §1
# [21] = target: Gal(b1-6)Gal
# In short: as §1
# [22] = target: Gal3S(b1-3)GalNAc
# In short: as §1
# [23] = target: Gal3S(b1-3)GlcNAc
# In short: as §1
# [24] = target: Gal3S(b1-3)[Fuc(a1-4)]GlcNAc
# In short: as §1
# [25] = target: Gal3S(b1-4)Glc
# In short: as §1
# [26] = target: Gal3S(b1-4)Glc6S
# In short: as §1
# [27] = target: Gal3S(b1-4)GlcNAc
# In short: as §1
# [28] = target: Gal3S(b1-4)[Fuc(a1-3)]Glc6S
# In short: as §1
# [29] = target: Gal3S(b1-4)[Fuc(a1-3)]GlcNAc
# In short: as §1
# [30] = target: Gal3S(b1-4)[Fuc(a1-3)]GlcNAc6S
# In short: as §1
# [31] = target: Gal3S4S(b1-4)GlcNAc
# In short: as §1
# [32] = target: Gal3S6S(b1-4)GlcNAc
# In short: as §1
# [33] = target: Gal3S6S(b1-4)GlcNAc6S
# In short: as §1
# [34] = target: Gal4S(b1-4)GlcNAc
# In short: as §1
# [35] = target: Gal4S6S(b1-4)GlcNAc
# In short: as §1
# [36] = target: Gal6P(b1-4)GlcNAc
# In short: as §1
# [37] = target: Gal6S(b1-3)GlcNAc
# In short: as §1
# [38] = target: Gal6S(b1-3)GlcNAc6S
# In short: as §1
binder,measurement,setting,value
B1,glycan array binding signal (z-score),[1],1.75
same,glycan array binding signal (z-score),[2],1.24
same,glycan array binding signal (z-score),[3],3.38
same,glycan array binding signal (z-score),[4],4.12
same,glycan array binding signal (z-score),[5],4.16
same,glycan array binding signal (z-score),[6],6
same,glycan array binding signal (z-score),[7],7.05
same,glycan array binding signal (z-score),[8],-0.078
same,glycan array binding signal (z-score),[9],0.053
same,glycan array binding signal (z-score),[10],0.025
same,glycan array binding signal (z-score),[11],-0.243
same,glycan array binding signal (z-score),[12],-0.257
same,glycan array binding signal (z-score),[13],-0.269
same,glycan array binding signal (z-score),[14],-0.272
same,glycan array binding signal (z-score),[15],-0.268
same,glycan array binding signal (z-score),[16],-0.282
same,glycan array binding signal (z-score),[17],-0.208
same,glycan array binding signal (z-score),[18],-0.08
same,glycan array binding signal (z-score),[19],-0.226
same,glycan array binding signal (z-score),[20],-0.215
same,glycan array binding signal (z-score),[21],-0.233
same,glycan array binding signal (z-score),[22],-0.251
same,glycan array binding signal (z-score),[23],-0.133
same,glycan array binding signal (z-score),[24],0.815
same,glycan array binding signal (z-score),[25],-0.116
same,glycan array binding signal (z-score),[26],0.008
same,glycan array binding signal (z-score),[27],-0.22
same,glycan array binding signal (z-score),[28],-0.177
same,glycan array binding signal (z-score),[29],-0.249
same,glycan array binding signal (z-score),[30],-0.04
same,glycan array binding signal (z-score),[31],-0.219
same,glycan array binding signal (z-score),[32],1.47
same,glycan array binding signal (z-score),[33],-0.092
same,glycan array binding signal (z-score),[34],-0.22
same,glycan array binding signal (z-score),[35],-0.205
same,glycan array binding signal (z-score),[36],-0.285
same,glycan array binding signal (z-score),[37],-0.276
same,glycan array binding signal (z-score),[38],-0.186
